Source: the supplement of paper PMC12217912
Some of the results follow. Sequences were assembled here from the parent chain. Inactive controls read about 0.05.

B1: TEV protease; numbered along this chain (parent)
chain: MGESLFKGPRDYNPISSSICHLTNESDGHTTSLYGIGFGPFIITNKHLFRRNNGTLVVQSLHGVFKVKDTTTLQQHLVDGRDMIIIRMPKDFPPFPQKLKFREPQREERICLVTTNFQTKSMSSMVSDTSCTFPSGDGIFWKHWIQTKDGQCGSPLVSTRDGFIVGIHSASNFTNTNNYFTSVPKNFMELLTNQEAQQWVSGWRLNADSVLWGGHKVFMVKPEEPFQPVKEATQL

Variants of: B1
Experiment: raw area under fraction-flipped curve 0-4 h after induction (AUC4h, not background-subtracted), DNA-recorder readout of cleavage of the substrate (dimensionless); higher = more cleavage of the substrate by the protease variant
Conditions: temperature: 34 °C; time window: 0-4 h after rhamnose induction
Procedure: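 In vivo DNA recorder in E. coli TOP10(DE3) ΔrhaA at 34 °C. Each TEVp single-site mutant (parent TEVp 0) is paired with a single-site variant of the 7-mer TEVs (canonical ENLYFQ|S). The substrate sits between flexible linkers in a Bxb1-sfGFP-TEVs-SsrA fusion, so cleavage stabilises Bxb1 and speeds flipping of a recombination array, read by NGS. The value is the raw area under the fraction-flipped curve over 0-4 h after rhamnose induction (AUC4h), with ≥20 reads per time point. It is not background-subtracted; inactive controls average about 0.047.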
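Further: Bxb1 expression induced with 0.2% (w/v) L-rhamnose at OD600 near 0.5, cultures sampled hourly, flipped fraction per protease–substrate barcode pair counted by paired-end Illumina sequencing.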

Variant | area with substrate ENLYFQC | area with substrate ENLYFQD | area with substrate ENLYFQF | area with substrate ENLYFQG | area with substrate ENLYFQI | area with substrate ENLYFQK | area with substrate ENLYFQN | area with substrate ENLYFQP | area with substrate ENLYFQR | area with substrate ENLYFQS | area with substrate ENLYFQT | area with substrate ENLYFQV | area with substrate ENLYFQW | area with substrate ENLYFQM | area with substrate ENLYFQY | area with substrate ENLYFQH | area with substrate ENLYFQL | area with substrate ENLYFQQ | area with substrate ENLYFQE
MGESLFKGPRDYNPISSSICHLTNESDGHTTSLYGIGFGPFIITNKHLFRRNNGTLVVQSLHGVFKVKDTTTLQQHSVDGRDMIIIRMPKDFPPFPQKLKFREPQREERICLVTTNFQTKSMSSMVSDTSCTFPSGDGIFWKHWIQTKDGQCGSPLVSTRDGFIVGIHSASNFTNTNNYFTSVPKNFMELLTNQEAQQWVSGWRLNADSVLWGGHKVFMVKPEEPFQPVKEATQL [L77S] | 0.0739 | 0.0663 | 0.0564 | 0.0796 | 0.0524 | 0.0502 | 0.101 | 0.0445 | 0.0625 | 0.0716 | 0.0573 | 0.0671 | 0.0561 |  |  |  |  |  | 
MGESLFKGPRDYNPISSSICHLTNESDGHTTSLYGIGFGPFIITNKHLFRRNNGTLVVQSLHGVFKVKDTTTLQQHLFDGRDMIIIRMPKDFPPFPQKLKFREPQREERICLVTTNFQTKSMSSMVSDTSCTFPSGDGIFWKHWIQTKDGQCGSPLVSTRDGFIVGIHSASNFTNTNNYFTSVPKNFMELLTNQEAQQWVSGWRLNADSVLWGGHKVFMVKPEEPFQPVKEATQL [V78F] | 0.0938 | 0.0495 |  | 0.111 | 0.0525 |  | 0.0809 | 0.0406 | 0.0881 | 0.0896 |  |  | 0.0684 | 0.0874 | 0 |  |  |  | 
MGESLFKGPRDYNPISSSICHLTNESDGHTTSLYGIGFGPFIITNKHLFRRNNGTLVVQSLHGVFKVKDTTTLQQHLVDGRDTIIIRMPKDFPPFPQKLKFREPQREERICLVTTNFQTKSMSSMVSDTSCTFPSGDGIFWKHWIQTKDGQCGSPLVSTRDGFIVGIHSASNFTNTNNYFTSVPKNFMELLTNQEAQQWVSGWRLNADSVLWGGHKVFMVKPEEPFQPVKEATQL [M83T] | 0.0819 |  | 0.0563 | 0.0756 | 0.0534 | 0.0784 |  | 0.0453 | 0.0447 | 0.0744 | 0.0587 | 0.0575 |  | 0.0623 |  | 0.0705 | 0.0635 |  | 
MGESLFKGPRDYNPISSSICHLTNESDGHTTSLYGIGFGPFIITNKHLFRRNNGTLVVQSLHGVFKVKDTTTLQQHLVDGRDMIPIRMPKDFPPFPQKLKFREPQREERICLVTTNFQTKSMSSMVSDTSCTFPSGDGIFWKHWIQTKDGQCGSPLVSTRDGFIVGIHSASNFTNTNNYFTSVPKNFMELLTNQEAQQWVSGWRLNADSVLWGGHKVFMVKPEEPFQPVKEATQL [I85P] | 0.0112 |  |  | 0.0242 | 0.0342 |  | 0.0574 |  | 0.0439 | 0.0379 | 0.053 | 0.0703 | 0.0272 | 0.0359 |  |  | 0.0203 | 0.0259 | 
MGESLFKGPRDYNPISSSICHLTNESDGHTTSLYGIGFGPFIITNKHLFRRNNGTLVVQSLHGVFKVKDTTTLQQHLVDGRDMIIIRMPKAFPPFPQKLKFREPQREERICLVTTNFQTKSMSSMVSDTSCTFPSGDGIFWKHWIQTKDGQCGSPLVSTRDGFIVGIHSASNFTNTNNYFTSVPKNFMELLTNQEAQQWVSGWRLNADSVLWGGHKVFMVKPEEPFQPVKEATQL [D91A] | 0.123 | 0.0684 |  | 0.115 |  |  | 0.0811 | 0.06 | 0.0526 | 0.0994 |  | 0.0475 | 0.0745 |  | 0.0738 |  | 0.0714 |  | 
MGESLFKGPRDYNPISSSICHLTNESDGHTTSLYGIGFGPFIITNKHLFRRNNGTLVVQSLHGVFKVKDTTTLQQHLVDGRDMIIIRMPKDFPPFPQKLKFCEPQREERICLVTTNFQTKSMSSMVSDTSCTFPSGDGIFWKHWIQTKDGQCGSPLVSTRDGFIVGIHSASNFTNTNNYFTSVPKNFMELLTNQEAQQWVSGWRLNADSVLWGGHKVFMVKPEEPFQPVKEATQL [R102C] | 0.055 | 0.0533 |  | 0.0629 | 0.0535 | 0.0351 | 0.0386 |  | 0.0424 | 0.0592 | 0.0532 |  | 0.0481 | 0.05 | 0.0396 | 0.0356 | 0.0555 |  | 
MGESLFKGPRDYNPISSSICHLTNESDGHTTSLYGIGFGPFIITNKHLFRRNNGTLVVQSLHGVFKVKDTTTLQQHLVDGRDMIIIRMPKDFPPFPQKLKFRQPQREERICLVTTNFQTKSMSSMVSDTSCTFPSGDGIFWKHWIQTKDGQCGSPLVSTRDGFIVGIHSASNFTNTNNYFTSVPKNFMELLTNQEAQQWVSGWRLNADSVLWGGHKVFMVKPEEPFQPVKEATQL [E103Q] | 0.104 | 0.0647 | 0.0705 | 0.0877 | 0.0515 | 0.0646 | 0.081 | 0.0587 | 0.025 | 0.103 | 0.0685 |  | 0.0553 | 0.0749 | 0.0707 | 0.0883 | 0.0549 |  | 
MGESLFKGPRDYNPISSSICHLTNESDGHTTSLYGIGFGPFIITNKHLFRRNNGTLVVQSLHGVFKVKDTTTLQQHLVDGRDMIIIRMPKDFPPFPQKLKFREPQFEERICLVTTNFQTKSMSSMVSDTSCTFPSGDGIFWKHWIQTKDGQCGSPLVSTRDGFIVGIHSASNFTNTNNYFTSVPKNFMELLTNQEAQQWVSGWRLNADSVLWGGHKVFMVKPEEPFQPVKEATQL [R106F] | 0.114 |  | 0.077 |  |  | 0.0677 | 0.0672 |  | 0.0535 | 0.0996 |  |  | 0.0689 | 0.0758 |  |  | 0.0522 |  | 
MGESLFKGPRDYNPISSSICHLTNESDGHTTSLYGIGFGPFIITNKHLFRRNNGTLVVQSLHGVFKVKDTTTLQQHLVDGRDMIIIRMPKDFPPFPQKLKFREPQREERICLVTTDFQTKSMSSMVSDTSCTFPSGDGIFWKHWIQTKDGQCGSPLVSTRDGFIVGIHSASNFTNTNNYFTSVPKNFMELLTNQEAQQWVSGWRLNADSVLWGGHKVFMVKPEEPFQPVKEATQL [N116D] | 0.111 | 0.0086 | 0.0759 | 0.0998 | 0.0587 | 0.0588 | 0.0882 | 0.0611 | 0.0565 | 0.102 | 0.0721 | 0.0596 |  | 0.0815 | 0.076 | 0.115 | 0.0437 |  | 0.0737
